Measurements from the RNAGym collection of RNA variant scans (doi:10.1093/nar/gkz1192).
Read counts are not given, so values of variants with three or more changes are uncertain.

B1: CPEB3 Ribozyme (parent)
chain: UAACAGGGGGCCACAGCAGAAGCGUUCACGUCGCAGCCCCUGUCAGAUUCUGGUGAAUCUGCGAAUUCUGCUGUAUAUCUC

Variants of: B1
Assay: self-cleavage, relative activity (ratio to wild type); higher = more cleavage; in vitro, sequencing
How it was run: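 CPEB3 self-cleaving ribozyme mutant libraries were made by rounds of error-prone PCR, barcoded, and transcribed in vitro with T7 RNA polymerase for 5 hours at 37°C. Cleavage occurred during transcription and a 15 min DNase I step before EDTA stop. RNAs were reverse transcribed with template switching and Illumina-sequenced, with DNA sequencing mapping barcodes to variants. Relative activity is the variant's cleaved/total read fraction divided by wild type's (minimum 5 reads), averaged across three batches.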

Variant	self-cleavage
UAACAGGGGGCCACAACAGAAGCGCUCACGUCGCGGCCCCUGCCAGAUUCUGGUGAAUCUGCGGGUUCUGCUGUAUAUCUC [G16A U25C A35G U43C A64G A65G]	0.19
UAACAGGGGGCCACAACAGAAGCGCUCACGUCGCAGCCCCUGUCUGAUUCUGGUGUAUCUGCCAAUUCUGCUGUAUAUCUC [G16A U25C A45U A56U G63C]	0.2
UAACAGGGGGCCACAACAGAAGCGCUCACGUCGCAGCCCCUGUCUGAUUCUGGUGAAUCUGCGAACUCUGCUGUAUAUCCC [G16A U25C A45U U66C U80C]	0.17
UAACAGGGGGCCACAACAGAAGCGCUCACGUCGCAGCCCCUGUCAGAUUCUGGUGGAACUGCGAAUUCAGCUGUAUAUCUC [G16A U25C A56G U58A U69A]	0.07
UAACAGGGGGCCACAACAGAAGCGCUCACGUCGCAGCCCCUGUCAGAUUCUGGUGAUUCUGCGAAUUCUGCUGUAUAACCU [G16A U25C A57U U78A U80C C81U]	0.08
UAACAGGGGGCCACAACAGAAGCGCUCACCUCGCAGCCCCUGUCAGAUUCUGGUGAAUCUGCGAAUUCUGCUGUAUAACCC [G16A U25C G30C U78A U80C]	0.28
UAACAGGGGGCCACAACAGAAGCGCACACGUCGCAGCCCCUGUCAGAUUCUGGUGAAUCUGCGAAUUCUGCUGUAUAUCCC [G16A U25C U26A U80C]	0.07
UAACAGGGGGCCACAACAGAAGCGCUCACGUCGCAGCCCCUGCCAGAUUCUGGUGAAUCUGCGAAUUCUGCUGAAUGUCUC [G16A U25C U43C U74A A77G]	0.21
UAACAGGGGGCCACAACAGAAGCGCUCACGUCGCAGCCCCUGUCAGAUUCAGGUGAAUCUGCGAAUUCUUCUGCAUAUCUC [G16A U25C U51A G70U U74C]	0.06
UAACAGGGGGCCACAACAGAAGCGCUCACGUCGCAGCCCCUGUCAGAUUCCGGUGAAUCUGCGAAUUCUGCUGUAUAUCUC [G16A U25C U51C]	0.17
UAACAGGGGGCCACAACAGAAGCGCUCACGUCGCAGCCCCUGUCAGAUUCUGGCGACUCUGCGAAUUCUGCUGUAUAUCUC [G16A U25C U54C A57C]	0.16
UAACAGGGGGCCACAACAGAAGCGUCCUCGUCGCAGCCCCUGUCAGAUUCUGGCGAAUCCGCGAAUUCUGCUGAAUAUCUC [G16A U26C A28U U54C U60C U74A]	0.08
UAACAGGGGGCCACAACAGAAGCGUCCACGUCGCAGCCCCUGUCAGAUUCUGGUGGAUCUGCGAAUUCUGCUGUAUAUCUC [G16A U26C A56G]	0.21
UAACAGGGGGCCACAACAGAAGCGUCCACGUCGCAGCCCCCGUCAGAUUCAGGUGAUUCUGCGAAUUCUGCUGUAUAUCUC [G16A U26C U41C U51A A57U]	0.12
UAACAGGGGGCCACAACAGAAGCGUCCACGUCGCAGCCCCUGUCAGAUACUGGUGAAACUGCGAAUUCUGCUGUGUAUCUC [G16A U26C U49A U58A A75G]	0.1
UAACAGGGGGCCACAACAGAAGCGUCCACGUCGCAGCCCCUGUCAGAUUCUGGUGAAUCCGCGAAUUCUGCUGAGUAUCUC [G16A U26C U60C U74A A75G]	0.13
UAACAGGGGGCCACAACAGAAGCGUUCACGCCGCAGCCCCUGUCGGAUUCUGGUGAAUCUGCGAAUUCUGCUGUAUAUCCC [G16A U31C A45G U80C]	0.31

Variant	self-cleavage
UAACAGGGGGCCACAACAGAAGCGUUCACGCCGCAGCCCCUGUCAGAUUCUGGCGAAUCUGCGAAUUCUGCUGCAUAACUC [G16A U31C U54C U74C U78A]	0.36
UAACAGGGGGCCACAACAGAAGCGUUCACGUCGCAGCCCCAGUCAGAUUCUGGUGAAUCUGCGUAUUCCGCUGUAUACCUC [G16A U41A A64U U69C U78C]	0.06
UAACAGGGGGCCACAACAGAAGCGUUCACGUCGCAGCCCCGGUCAGAUCCUGGUGGAUCUGCGAAUUCUGCUGUAUAUCUC [G16A U41G U49C A56G]	0.07
UAACAGGGGGCCACAACAGAAGCGUUCACGUCGCAGCCCCUGUCAGAUACUGGUGAAACUGCGAAUUCUGCUGUAUAUCUC [G16A U49A U58A]	0.29
UAACAGGGGGCCACAACAGAAGCGUUCACGUCGCAGCCCCUGUCAGAUUCAGGUGAAUCUGCGAAUUCUGCUGUACAUCAC [G16A U51A U76C U80A]	0.86
UAACAGGGGGCCACAACAGAAGCGUUCACGUCGCAGCCCCUGUCAGAUUCCGGUGAAUCUGCCCAUUCUGCUGUAUAUCUC [G16A U51C G63C A64C]	0.13
UAACAGGGGGCCACAACAGAAGCGUUCACGUCGCAGCCCCUGUCAGAUUCUGGCGAAUCUGCGAAUUCUGCUAUGUAUCUC [G16A U54C G73A A75G]	0.21
UAACAGGGGGCCACAACAGAAGCGUUCACGUCGCAGCCCCUGUCAGAUUCUGGUGAACCUGCGAAUUCUGCUAUAUAUCUC [G16A U58C G73A]	0.1
UAACAGGGGGCCACAACAGAAGCGUUCACGUCGCAGCCCCUGUCAGAUUCUGGUGAAUCUGCGAACUCUGCUGUGUGUCUC [G16A U66C A75G A77G]	0.09
UAACAGGGGGCCACACCAGGAGCGUUCACGUCACAGCCCCUGUCAGAUUAUGGGGAACCUGCGAAUUCUGCUGUAUAUUUC [G16C A20G G33A C50A U54G U58C C79U]	0.01
UAACAGGGGGCCACACCAGUAGCGAUCACGUCGCAGGCCCUGUCAGAUUCUGGUGAAUCUGCGAAUUCUGCUGUAUAUCUC [G16C A20U U25A C37G]	0.13
UAACAGGGGGCCACACCAGACGCGUUCACGUCGCAGCCCCUGUCAGUUUCUGGUGAAUCCGCGAAUUCUGCUGUAUAUCUC [G16C A21C A47U U60C]	0.27
UAACAGGGGGCCACACCAGAAGCGUUCGCGUCGCAGCCCCUGUCAGAUUCUGGUGAAUCUGCGAAUUCUGCUGUAUAUCCC [G16C A28G U80C]	0.53
UAACAGGGGGCCACACCAGAAGCGUUCACGUAGCAGCCCCUGUAAGAUUCUGGUGAAUCUGCGAAAUCUGCUGUAUGUCUC [G16C C32A C44A U66A A77G]	0.1
UAACAGGGGGCCACACCAGAAGCGUUCACGUCGCAGCCCCUGUAAGAGUCUGGUGAAUCUGCGAAUUCUGCUGUAUAUCUC [G16C C44A U48G]	0.27
UAACAGGGGGCCACACCAGAAGCGAUCACGUCGCAGCCCCAGUCAGAUCCUGGUGAAUCUGCGAAAUCUGCUGUAUAUCUC [G16C U25A U41A U49C U66A]	0.22
UAACAGGGGGCCACACCAGAAGCGCUCACGUCUCAGCCCCUGUCAGAUUCUGGUGAGUCUGCGAAUUCUGCUCUAUAUCUC [G16C U25C G33U A57G G73C]	0.17
